This note sets out measurements from the supplement of paper PMC9446081.

Hit rate of the full screen: of about 39,000 compounds, about 220 (0.56%) showed activity. This is one part of the list.
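Note: static incubation at 37 °C against the wild-type strain, values averaged over two biological replicates.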

In the assay the test system is Escherichia coli K-12 BW25113. Description: relative growth (OD600 normalised to plate interquartile mean) (fraction); higher = less growth inhibition, active = 0.2 or less. To be noted: 50 µM; LB; incubation time: overnight (16-24 h).
For `COc1ccccc1C#Cc1ccc2c(c1)O[C@H](CN(C)Cc1cccnc1)[C@H](C)CN([C@H](C)CO)S2(=O)=O`, the relative growth is inactive: 1.05.

As for `COc1ccc(S(=O)(=O)Nc2ccc3c(c2)C(=O)N([C@H](C)CO)C[C@H](C)[C@H](CN(C)Cc2ccc(-c4ccccc4)cc2)O3)cc1`, the relative growth is inactive: 0.918.

Take `Cc1cc(C(=O)Nc2cccc3c2O[C@@H](CN(C)C(=O)Nc2ccccc2)[C@@H](C)CN([C@@H](C)CO)C3=O)n(C)n1`: the relative growth was inactive: 0.932.

Consider `C[C@@H]1CN([C@H](C)CN(C)C)C(=O)c2cc(NC(=O)Cc3cn(C)c4ccccc34)ccc2O[C@H]1CN(C)S(=O)(=O)c1ccc(Cl)cc1`, for which the relative growth is inactive: 0.976.

In the case of `C[C@@H]1CCCCO[C@H](CN(C)Cc2ccc(C(F)(F)F)cc2)[C@H](C)CN([C@@H](C)CO)C(=O)c2cc(NC(=O)c3ccncc3)ccc2O1`, the relative growth was inactive: 0.984.

For `Cc1cccc(C)c1OCC(C)N.Cl` (stereo not drawn), the relative growth is inactive: 0.896.

Take `O=C(O)CSc1ncnc2nc[nH]c12`: the relative growth was inactive: 1.01.

As for `Cc1noc(C)c1NC(=O)Nc1ccc2c(c1)CC(=O)N([C@H](C)CO)C[C@@H](C)[C@@H](CN(C)Cc1ccc(C(F)(F)F)cc1)O2`, the relative growth was inactive: 1.

As to `Cc1noc(C)c1NC(=O)Nc1cccc2c1O[C@@H](CN(C)C(=O)NC(C)C)[C@H](C)CN([C@@H](C)CO)C2=O`, the relative growth is inactive: 0.981.

For the compound `Cc1noc(C)c1S(=O)(=O)Nc1ccc2c(c1)C(=O)N([C@@H](C)CO)C[C@H](C)[C@H](CN(C)S(C)(=O)=O)O2`, the relative growth was inactive: 0.999.

On to `COc1ccc(NC(=O)N(C)C[C@H]2Oc3ccc(NS(=O)(=O)c4c(C)noc4C)cc3CC(=O)N([C@H](C)CO)C[C@@H]2C)cc1`, for which the relative growth is inactive: 1.03.

With `C[C@@H]1CN([C@@H](C)CO)S(=O)(=O)c2ccc(C3=CCCC3)cc2O[C@@H]1CN(C)S(=O)(=O)c1cn(C)cn1`, the relative growth is inactive: 0.999.

Turning to `Cc1ccc(C(=O)N(CCCN)[C@@H](c2oc3cc(Cl)ccc3c(=O)c2Cc2ccccc2)C(C)C)cc1`, the relative growth was inactive: 0.987.

For `COc1ccc(NC(=O)N(C)C[C@H]2OCc3ccccc3-c3c(n(C)c4ccccc34)C(=O)N([C@H](C)CO)C[C@@H]2C)cc1`, the relative growth is inactive: 1.01.

Consider `C[C@@H]1CCCCO[C@H](CN(C)CC2CCCCC2)[C@@H](C)CN([C@H](C)CO)C(=O)c2cc(NS(=O)(=O)c3ccc(Cl)cc3)ccc2O1`, for which the relative growth was inactive: 1.01.

Consider `C[C@H](CO)N1C[C@H](C)[C@@H](CN(C)S(=O)(=O)c2cn(C)cn2)Oc2c(NS(=O)(=O)c3ccc(Cl)cc3)cccc2C1=O`, for which the relative growth is inactive: 1.

Take `C[C@@H]1CCCCO[C@@H](CN(C)C(=O)c2ccccc2)[C@H](C)CN([C@H](C)CO)C(=O)c2cc(NC(=O)Nc3ccc(C(F)(F)F)cc3)ccc2O1`: the relative growth is inactive: 0.999.

Take `O=S(=O)(N1CCOCC1)n1nnc2ccccc21`: the relative growth was inactive: 1.03.

`C[C@H]1CN([C@@H](C)CO)S(=O)(=O)c2ccc(C#Cc3ccc(F)cc3)cc2O[C@H]1CN(C)S(=O)(=O)c1ccc(F)cc1`: the relative growth was inactive: 1.07.

For the compound `COCC(=O)Nc1ccc2c(c1)C(=O)N(C)C[C@@H](OC)[C@@H](C)CN(C(=O)Cc1cccnc1)[C@H](C)CO2`, the relative growth was inactive: 1.03.

As to `CCOC(=O)C1CCN(C(=O)CNC(=O)Cc2n[nH]c(=O)c3ccccc23)CC1`, the relative growth was inactive: 1.01.

Take `COc1ccc(S(=O)(=O)Nc2ccc3c(c2)C(=O)N([C@H](C)CO)C[C@H](C)[C@H](CN(C)S(=O)(=O)c2ccc(Cl)cc2)OCCCC[C@H](C)O3)cc1`: the relative growth was inactive: 1.01.

For `C=CC[C@@H](CC(=O)N[C@@H](CO)Cc1ccccc1)C(=O)N[C@H](C)COC(=O)[C@@H](CC=C)CC(=O)OC(C)(C)C`, the relative growth was inactive: 0.954.

Turning to `Cc1noc(C)c1NC(=O)Nc1ccc2c(c1)C(=O)N([C@H](C)CO)C[C@H](C)[C@H](CN(C)C(=O)Nc1ccccc1)OCCCC[C@H](C)O2`, the relative growth is inactive: 1.01.

As for `C[C@@H]1CN([C@@H](C)CO)C(=O)c2cc(NC(=O)Nc3ccc(C(F)(F)F)cc3)ccc2O[C@H]1CN(C)Cc1ccc(C(=O)O)cc1`, the relative growth was inactive: 0.974.

Consider `COc1ccc(S(=O)(=O)Nc2ccc3c(c2)C(=O)N([C@@H](C)CO)C[C@@H](C)[C@H](CN(C)S(=O)(=O)c2ccc(Cl)cc2)OCCCC[C@@H](C)O3)cc1`, for which the relative growth is inactive: 1.03.

In the case of `COc1cc2nc(N3CCN(C(=O)c4ccco4)CC3)nc(N)c2cc1OC.Cl`, the relative growth is inactive: 1.02.

With `C[C@H](CO)N1C[C@H](C)[C@@H](CN(C)Cc2ccc(C(=O)Nc3ccccc3N)cc2)Oc2ccc(NS(C)(=O)=O)cc2C1=O`, the relative growth is inactive: 0.997.

Turning to `Nc1nonc1/C(=N/O)N1CCCCC1`, the relative growth was inactive: 0.984.

Regarding `C[C@@H]1CN([C@@H](C)CO)S(=O)(=O)c2ccc(C3=CCCC3)cc2O[C@H]1CN(C)S(=O)(=O)c1cn(C)cn1`, the relative growth was inactive: 1.02.

For `CN(C)C(=O)N1CCC2(CC1)CC1(CCN(S(=O)(=O)C3CC3)CC1)N(C)C2=O`, the relative growth is inactive: 0.982.

With `C[C@H]1CCCCO[C@H](CN(C)C(=O)Nc2ccc(F)cc2)[C@@H](C)CN([C@@H](C)CO)C(=O)c2cc(NC(=O)C3CCCCC3)ccc2O1`, the relative growth is inactive: 1.02.

`C[C@@H]1CN([C@@H](C)CO)C(=O)Cc2cc(NC(=O)CCC(F)(F)F)ccc2O[C@H]1CN(C)C(=O)Nc1ccc(C(F)(F)F)cc1`: the relative growth is inactive: 0.954.

Consider `C[C@@H]1CN([C@@H](C)CO)S(=O)(=O)c2ccc(C#CC3CCCC3)cc2O[C@H]1CN(C)Cc1cncnc1`, for which the relative growth is inactive: 1.05.

Consider `CCOc1cc(N)ncn1`, for which the relative growth is inactive: 0.983.

As for `Cc1noc(C)c1NC(=O)Nc1ccc2c(c1)CC(=O)N([C@H](C)CO)C[C@@H](C)[C@H](CN(C)Cc1ccc(Cl)c(Cl)c1)O2`, the relative growth was inactive: 1.

Consider `C[C@@H]1CN([C@H](C)CO)C(=O)c2cc(C#CCN(C)C)cnc2O[C@@H]1CN(C)S(=O)(=O)c1cn(C)cn1`, for which the relative growth is inactive: 0.98.

Turning to `C[C@H](NC(=O)C[C@H]1C=C[C@@H](NC(=O)CN2CCOCC2)[C@@H](CO)O1)c1ccccc1`, the relative growth was inactive: 0.975.

In the case of `CC(C)C#Cc1ccc2c(c1)O[C@@H](CN(C)C(=O)c1cccc(F)c1)[C@@H](C)CN([C@H](C)CO)S2(=O)=O`, the relative growth was inactive: 0.997.

`O=C(C[C@H]1C=C[C@@H](NS(=O)(=O)c2ccc(F)cc2)[C@H](CO)O1)NCc1ccc(Cl)c(Cl)c1`: the relative growth is inactive: 1.02.

With `C[C@H](CO)N1C[C@H](C)[C@H](CN(C)CC2CCCCC2)Oc2c(NC(=O)Nc3ccccc3)cccc2C1=O`, the relative growth is inactive: 0.983.

As to `C[C@H](CO)N1C[C@H](C)[C@@H](CN(C)Cc2ccccc2)Oc2cc(C#Cc3ccccn3)ccc2S1(=O)=O`, the relative growth is inactive: 1.02.

For `Cn1cnc(S(=O)(=O)N[C@H]2CC[C@H](CC(=O)NCC3CC3)O[C@H]2CO)c1`, the relative growth is inactive: 1.02.

In the case of `Cn1cnc(S(=O)(=O)N[C@@H]2CC[C@@H](CC(=O)Nc3ccccc3)O[C@H]2CO)c1`, the relative growth is inactive: 1.01.

Consider `CCCNC(=O)N1C[C@]2(CCN(CC2)C(=O)Cc2cccnc2)c2c([nH]c3cc(ccc23)OC)[C@H]1CO`, for which the relative growth is inactive: 0.984.

Take `Cc1noc(C)c1S(=O)(=O)Nc1ccc2c(c1)CC(=O)N([C@H](C)CO)C[C@@H](C)[C@H](CN(C)S(=O)(=O)c1ccccc1)O2`: the relative growth was inactive: 1.01.

Consider `C[C@@H]1CN([C@H](C)CO)C(=O)c2cc(NS(C)(=O)=O)ccc2O[C@@H](C)CCCCO[C@@H]1CN(C)Cc1ccc(Cl)c(Cl)c1`, for which the relative growth is inactive: 0.966.

For the compound `C[C@@H]1CN([C@H](C)CO)S(=O)(=O)c2ccc(C#CC3(O)CCCC3)cc2O[C@@H]1CN(C)C(=O)c1cccnc1`, the relative growth is inactive: 0.986.

On to `COc1ccc(S(=O)(=O)Nc2ccc3c(c2)C(=O)N([C@@H](C)CO)C[C@H](C)[C@@H](CN(C)Cc2ccccc2)OCCCC[C@@H](C)O3)cc1`, for which the relative growth was inactive: 0.982.

As to `COc1ccc(S(=O)(=O)N[C@H]2C=C[C@H](CC(=O)N3CCC(Cc4ccccc4)CC3)O[C@H]2CO)cc1`, the relative growth is inactive: 1.02.

`CN1CCN(C(=O)c2ccc(N)cc2)CC1`: the relative growth was inactive: 0.976.

Consider `CC(C)(CO)C(O)C(=O)NCCC(=O)NCCSSCCNC(=O)CCNC(=O)C(O)C(C)(C)CO` (stereo not drawn), for which the relative growth was inactive: 0.992.

Consider `C[C@@H]1CN([C@H](C)CO)C(=O)c2cc(NS(=O)(=O)c3ccccc3)ccc2O[C@@H]1CN(C)Cc1ccc(-c2ccccc2)cc1`, for which the relative growth is inactive: 1.02.

As for `O=C(O)P(=O)(O)O`, the relative growth was active: 0.0351.

Take `CC(C)NC(=O)Nc1ccc2c(c1)C(=O)N([C@H](C)CO)C[C@H](C)[C@@H](CN(C)S(C)(=O)=O)OCCCC[C@@H](C)O2`: the relative growth is inactive: 0.904.

Regarding `CC1C(=O)OC2C1CCC1(C)CCC(=O)C(C)C21` (stereo not drawn), the relative growth is inactive: 1.04.

Regarding `C[C@H]1CN([C@@H](C)CO)C(=O)c2cc(C#CC(C)(C)O)cnc2O[C@H]1CN(C)C(=O)CN(C)C`, the relative growth was inactive: 1.03.

`Cc1ccc(S(=O)(=O)Nc2ccc3c(c2)C(=O)N(C)[C@@H]2CC[C@@H](CC(=O)NCCc4ccncc4)O[C@H]2CO3)cc1`: the relative growth was inactive: 0.992.

Take `Cc1ccc(C)c(S(N)(=O)=O)c1`: the relative growth was inactive: 0.952.

With `C[C@H](NC(=O)[C@@H]1CCCC[C@H]1C(=O)O)c1ccccc1.C[C@H](NC(=O)[C@H]1CCCC[C@H]1C(=O)O)c1ccccc1`, the relative growth is inactive: 0.982.

For the compound `C[C@H](CO)N1C[C@H](C)[C@@H](CN(C)S(=O)(=O)c2cccs2)Oc2ccc(NS(=O)(=O)c3ccc(F)cc3)cc2CC1=O`, the relative growth is inactive: 0.997.

Consider `O=C(O)c1ccc[n+]([O-])c1`, for which the relative growth is inactive: 0.916.

For `C[C@H]1CN([C@@H](C)CO)S(=O)(=O)c2ccc(C#CC(C)(C)O)cc2O[C@@H]1CN(C)C(=O)C1CCCCC1`, the relative growth was inactive: 0.989.
